Assay results from PubChem BioAssay AID485294 (National Center for Advancing Translational Sciences (NCATS), 2010).
The campaign covered roughly 370,000 compounds. About 150 (0.041%) were called active. This list was built around the results that the source calls inconclusive (neither active nor inactive); the mix of calls is not that of the screen. Calls follow the shape of the dose curve; as a rule, active = well fitted inhibition curve with a large enough effect; inconclusive = small, poorly fitted or top-dose-only effect; inactive = flat fitted curve, though single readings scatter. No potency is given beside an inconclusive call; the fits are too rough.

The compounds below were run against Beta-lactamase (Escherichia coli (strain K12)) (UniProt P00811) (assay: qHTS Inhibitors of AmpC Beta-Lactamase (assay with detergent)). Settings: AmpC hydrolysis of nitrocefin, absorbance 480 nm, 0.01% Triton; series mostly up to 114 µM.
UniProt P00811, sequence (P00811 whole entry, looked up): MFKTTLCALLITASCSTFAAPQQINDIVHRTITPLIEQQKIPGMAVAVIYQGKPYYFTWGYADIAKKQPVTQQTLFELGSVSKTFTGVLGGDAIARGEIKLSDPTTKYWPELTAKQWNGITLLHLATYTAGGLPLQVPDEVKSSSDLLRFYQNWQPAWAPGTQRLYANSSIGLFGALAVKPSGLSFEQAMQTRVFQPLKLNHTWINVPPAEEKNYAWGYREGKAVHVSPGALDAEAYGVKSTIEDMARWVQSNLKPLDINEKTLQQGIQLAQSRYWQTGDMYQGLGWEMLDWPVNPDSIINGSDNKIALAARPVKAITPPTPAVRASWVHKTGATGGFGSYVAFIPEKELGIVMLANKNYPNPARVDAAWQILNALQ
Method in brief: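 20 mM phosphate pH 7.0 + 0.01% (detergent screen) or 0.0001% Triton X-100; 5.3 nM AmpC reagent; cpd preinc 15 min RT; nitrocefin (800 uM stock) to start; A480 q20 s × 4 min; Activity was normalised to no-enzyme and no-compound control wells.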
Also: nearly all actives have a fitted effect of over 25% in size.
Potency is read from the fitted curve at half-maximal effect; tags tell the direction and shape of the fitted curve.

| Compound | Potency |
| --- | --- |
| Cc1cccc(CSc2nc3ccncc3n2CC(=O)Nc2cc(C)cc(C)c2)c1 | inconclusive [inhibitor, full curve, poor fit] |
| CC(=O)c1cccc(N2C(=NC(=O)C(C)C)SC3CS(=O)(=O)CC32)c1 (stereo unspecified) | inconclusive [inhibitor, full curve] |
| CCc1ccc(NC(=O)CSc2ccc3nnc(CCNS(=O)(=O)c4ccc(OC)cc4)n3n2)cc1 | inactive |
| Cc1cc(OCCCSc2nc(-c3ccc(C(C)(C)C)cc3)nc3cc(=O)[nH]n23)ccc1Cl | inactive |
| COc1ccc(OCc2nnc(SCC(=O)N3c4ccccc4Sc4ccc(Cl)cc43)o2)cc1 | inconclusive [inhibitor, partial curve] |
| Fc1ccc(CN2CCC(Cc3ccccc3)CC2)cc1F | inconclusive [inhibitor, full curve, poor fit] |
| CN1C(=O)CSc2ccc(NC(=O)NCc3ccccc3)cc21 | inconclusive [inhibitor, full curve, poor fit] |
| Cn1c(=O)c2c(nc(CN3CCC(Cc4ccccc4)CC3)n2CCN2CCOCC2)n(C)c1=O | inactive |
| COc1ccc(-n2nc(C(=O)NCC(=O)NCCCN3CC(C)CC(C)C3)c3ccccc3c2=O)cc1Cl (stereo unspecified) | inactive |
| CCc1nnc(NC(=O)COc2ccc3ccccc3c2)s1 | inconclusive [inhibitor, single point] |
| Cc1ccc(C(C(=O)NC2CCCC2)N2CCc3ccccc32)cc1 (stereo unspecified) | inconclusive [inhibitor, full curve] |
| CCc1ccc2c(c1)[C@]1(C(=O)N2)[C@@H]2C(=O)N(Cc3ccccc3)C(=O)[C@@H]2[C@@H]2CCCN21 | inconclusive [inhibitor, partial curve] |
| O=C1CC(c2ccccc2)CC(O)=C1C=NCCN1CCN(C(=O)Cc2ccccc2)CC1 (stereo unspecified) | inactive |
| COc1ccc(-c2nnc(SCC(=O)Nc3ccc(Cl)cc3)n2C)cc1 | inconclusive [inhibitor, single point] |
| Cc1c(C#N)c2ccccc2n1CC(=O)NC(C)c1ccccc1 (stereo unspecified) | inconclusive [inhibitor, single point] |
| O=C(COc1ccc(Br)cc1)Nc1ccccc1N1CCCC1 | inconclusive [inhibitor, partial curve] |
| COc1ccc(NC(=O)c2sccc2-n2cccc2)cc1 | inconclusive [inhibitor, partial curve, poor fit] |
| Cc1c(-c2ccc(F)cc2)nc(N)c(C#N)c1-c1cccs1 | inconclusive [inhibitor, full curve, poor fit] |
| O=C(COc1ccc(=O)n(-c2ccccc2)n1)Nc1ccccc1 | inconclusive [inhibitor, full curve] |
| COC(=O)c1sc(NC(=O)C(C)c2ccccc2)nc1C (stereo unspecified) | inactive |
| CCC(=O)NC1CC(=O)N(c2ccc3c(c2)OCCO3)C1 (stereo unspecified) | inactive |
| CCOc1ccc(S(=O)(=O)Oc2ccc3ccccc3c2)cc1 | inconclusive [inhibitor, single point] |

| Compound | Potency |
| --- | --- |
| CCCN1CCN(CC(=O)NCC(=O)Nc2cccc(C)c2C)CC1 | inconclusive [inhibitor, full curve] |
| CCN(C(=O)COC(=O)c1oc2ccccc2c1C)c1c(N)n(Cc2ccccc2)c(=O)[nH]c1=O | inconclusive [inhibitor, single point] |
| COc1ccc(C2=NN(C(C)=O)C(c3ccccc3)C2)cc1 (stereo unspecified) | inconclusive [inhibitor, full curve, poor fit] |
| CCCC(=O)Nc1nnc(S(=O)(=O)N2CCCC2)s1 | inconclusive [inhibitor, partial curve] |
| Cc1ccc(-c2nnc(Nc3ccc(Br)cc3)c3ccccc23)cc1S(=O)(=O)N1CCCCC1 | inactive |
| COc1ccc(OC)c(NC(=O)Cn2cc(C(=O)c3ccco3)c3ccccc32)c1 | inconclusive [inhibitor, full curve] |
| CC(=O)OC(C)[C@H]1CC[C@H]2[C@@H]3CC[C@H]4C[C@@H](OC(C)=O)CC[C@]4(C)C3=CC[C@]12C (stereo partly specified) | inconclusive [inhibitor, single point] |
| COc1cc2c(cc1OC)CN(C(=O)CN1C(=O)NC3(CCC(C)CC3)C1=O)CC2 (stereo unspecified) | inconclusive [inhibitor, partial curve, poor fit] |
| CCCN(CCC)CCCNC(=O)Cn1cnc2onc(-c3ccc(F)cc3)c2c1=O | inactive |
| CCc1ccc2oc(-c3ccc(OC)cc3)cc(=Nc3c(C)n(C)n(-c4ccccc4)c3=O)c2c1 | inactive |
| Cc1sc(NC(=S)NC(=O)c2ccc(C(C)(C)C)cc2)c(C#N)c1C | inactive |
| Cc1ccc(CCNC(=O)C2CCN(C(=O)N(C)C)CC2)cc1 | inconclusive [inhibitor, full curve, poor fit] |
| O=C(Cc1ccc(F)cc1)Nc1nccs1 | inactive |
| COc1ccc(S(=O)(=O)N2CCN(C(=O)c3c(C)nn(-c4ccccc4)c3C)CC2)cc1 | inconclusive [inhibitor, full curve, poor fit] |
| CCNC(=O)c1ccc(CSc2ccc(Cl)cc2)cc1 | inconclusive [inhibitor, single point] |
| O=C(CCCn1c(=O)[nH]c2ccccc2c1=O)NCc1ccccc1Cl | inactive |
| COC(=O)c1cc(C(=O)OCC(=O)c2ccc3c(c2)NC(=O)CO3)cc([N+](=O)[O-])c1 | inactive |
| Cc1sc(NC(=O)CN2CCCC2)nc1-c1ccc2c(c1)CCN2C(=O)c1cccc(F)c1 | inconclusive [inhibitor, partial curve, poor fit] |
| CC1(C)Cc2c(C#N)c(NCCc3ccccc3)nc(-c3ccco3)c2CO1 | inactive |
| CC(=O)C1=C(C)NC(SCC(=O)c2ccc(C)cc2)=C(C#N)C1c1ccco1 (stereo unspecified) | inconclusive [inhibitor, partial curve, poor fit] |
| CC1CN2C(c3ccc(Cl)cc3)=CSC2=N1 (stereo unspecified) | inconclusive [inhibitor, full curve, poor fit] |
| Cc1c(NS(=O)(=O)c2ccc3c(c2)c(=O)n(C)c(=O)n3C)c(=O)n(-c2ccccc2)n1C | inconclusive [inhibitor, partial curve, poor fit] |

| Compound | Potency |
| --- | --- |
| Cc1ccc(S(=O)(=O)N2CCN(CC(=O)N/N=C/C=C/c3ccccc3)CC2)cc1 | inconclusive [inhibitor, full curve] |
| C1CN=C(NC23CC4CC(CC(C4)C2)C3)C1 | inconclusive [inhibitor, full curve, poor fit] |
| COc1ccccc1-c1nnc2sc(-c3cnccn3)nn12 | inconclusive [inhibitor, full curve, poor fit] |
| CC(C(=O)NCc1ccccc1)N1C(=O)c2ccccc2C1=O (stereo unspecified) | inconclusive [inhibitor, partial curve] |
| COC(=O)[C@H](Cc1ccccc1)NC(=O)NCC1CCCO1 (stereo partly specified) | inconclusive [inhibitor, full curve, poor fit] |
| Cc1nc(SCC(=O)c2ccc(Cl)cc2)c([N+](=O)[O-])[nH]1 | inactive |
| COC(=O)c1ccc(S(=O)(=O)N2CCCCCC2)cc1 | inconclusive [inhibitor, full curve, poor fit] |
| Clc1ccc(-c2ccc(CNCc3ccccn3)o2)cc1 | inactive |
| CCOC(=O)c1c(NC(=O)COC(=O)CCNS(=O)(=O)c2ccccc2)sc(C(=O)N(C)C)c1C | inconclusive [inhibitor, full curve, poor fit] |
| CCCCOc1cccc(C(=O)Nc2ccc(S(=O)(=O)Nc3nnc(CC)s3)cc2)c1 | inconclusive [inhibitor, full curve] |
| Cc1cc(=O)[nH]c2nnc(SCc3ccc(Cl)c(Cl)c3)n12 | inactive |
| O=C1CC(c2ccccc2)n2nc(N3C(=O)CCC3=O)nc2N1 (stereo unspecified) | inconclusive [inhibitor, partial curve] |
| Brc1ccc2c(c1)CNc1c(ncnc1N1CCOCC1)O2 | inconclusive [inhibitor, full curve] |
| Cc1c(C(=O)Nc2ccc(-c3nnc4n3CCCCC4)cc2)oc2c1ccc1ccccc12 | inactive |
| O=C1CC(c2ccc(S(=O)(=O)NCc3ccccc3)cc2)CN1 (stereo unspecified) | inconclusive [inhibitor, full curve, poor fit] |
| Cc1ccc(CN2C(=O)C(Cc3ccccc3)Nc3ncnc(N4CCN(c5ccccc5)CC4)c32)cc1 (stereo unspecified) | inactive |
| Cc1cc(N/N=C(/CCC(=O)O)C(=O)O)nc2ccccc12 | inconclusive [inhibitor, full curve, poor fit] |
| COc1cc(/C=C/C(=O)OCC(=O)N(C)CC(=O)Nc2ccc(F)cc2)ccc1OC(F)F | inactive |
| O=C(c1ccc(NC2=NC3CS(=O)(=O)CC3S2)cc1)N1CCN(c2ccc(F)cc2)CC1 (stereo unspecified) | inconclusive [inhibitor, partial curve] |
| CCOC(=O)N1CCN(C(=O)CSc2nnc(-c3cccc(OC)c3)o2)CC1 | inconclusive [inhibitor, full curve, poor fit] |
| COc1ccc(-c2nc(CSCC(=O)NCCCN3CCCC3=O)c(C)o2)cc1OC | inconclusive [inhibitor, full curve] |
| CCN(CC)S(=O)(=O)c1cc(C(=O)OCC(=O)NC(=O)c2cccn2C)ccc1C | inconclusive [inhibitor, full curve, poor fit] |
